From PMC9231623 come the findings set out here.

Amino acid sequences for entries named in this document (tags omitted). Residues count along the entry.
UniProt Q13596: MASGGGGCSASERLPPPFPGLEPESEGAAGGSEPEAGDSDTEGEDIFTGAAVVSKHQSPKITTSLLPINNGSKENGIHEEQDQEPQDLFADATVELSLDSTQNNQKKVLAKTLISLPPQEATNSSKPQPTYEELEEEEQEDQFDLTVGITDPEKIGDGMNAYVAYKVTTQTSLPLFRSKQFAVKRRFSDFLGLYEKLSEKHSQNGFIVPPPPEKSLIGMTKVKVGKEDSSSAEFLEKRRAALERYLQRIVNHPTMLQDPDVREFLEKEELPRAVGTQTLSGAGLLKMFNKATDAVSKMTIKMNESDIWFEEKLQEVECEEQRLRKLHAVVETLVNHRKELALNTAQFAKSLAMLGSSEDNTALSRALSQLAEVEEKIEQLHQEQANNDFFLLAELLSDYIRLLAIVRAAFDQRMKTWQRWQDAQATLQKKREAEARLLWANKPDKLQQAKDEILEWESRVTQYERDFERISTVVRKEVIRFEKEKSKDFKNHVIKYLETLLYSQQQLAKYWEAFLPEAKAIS
UniProt P11717, residues 41-2491: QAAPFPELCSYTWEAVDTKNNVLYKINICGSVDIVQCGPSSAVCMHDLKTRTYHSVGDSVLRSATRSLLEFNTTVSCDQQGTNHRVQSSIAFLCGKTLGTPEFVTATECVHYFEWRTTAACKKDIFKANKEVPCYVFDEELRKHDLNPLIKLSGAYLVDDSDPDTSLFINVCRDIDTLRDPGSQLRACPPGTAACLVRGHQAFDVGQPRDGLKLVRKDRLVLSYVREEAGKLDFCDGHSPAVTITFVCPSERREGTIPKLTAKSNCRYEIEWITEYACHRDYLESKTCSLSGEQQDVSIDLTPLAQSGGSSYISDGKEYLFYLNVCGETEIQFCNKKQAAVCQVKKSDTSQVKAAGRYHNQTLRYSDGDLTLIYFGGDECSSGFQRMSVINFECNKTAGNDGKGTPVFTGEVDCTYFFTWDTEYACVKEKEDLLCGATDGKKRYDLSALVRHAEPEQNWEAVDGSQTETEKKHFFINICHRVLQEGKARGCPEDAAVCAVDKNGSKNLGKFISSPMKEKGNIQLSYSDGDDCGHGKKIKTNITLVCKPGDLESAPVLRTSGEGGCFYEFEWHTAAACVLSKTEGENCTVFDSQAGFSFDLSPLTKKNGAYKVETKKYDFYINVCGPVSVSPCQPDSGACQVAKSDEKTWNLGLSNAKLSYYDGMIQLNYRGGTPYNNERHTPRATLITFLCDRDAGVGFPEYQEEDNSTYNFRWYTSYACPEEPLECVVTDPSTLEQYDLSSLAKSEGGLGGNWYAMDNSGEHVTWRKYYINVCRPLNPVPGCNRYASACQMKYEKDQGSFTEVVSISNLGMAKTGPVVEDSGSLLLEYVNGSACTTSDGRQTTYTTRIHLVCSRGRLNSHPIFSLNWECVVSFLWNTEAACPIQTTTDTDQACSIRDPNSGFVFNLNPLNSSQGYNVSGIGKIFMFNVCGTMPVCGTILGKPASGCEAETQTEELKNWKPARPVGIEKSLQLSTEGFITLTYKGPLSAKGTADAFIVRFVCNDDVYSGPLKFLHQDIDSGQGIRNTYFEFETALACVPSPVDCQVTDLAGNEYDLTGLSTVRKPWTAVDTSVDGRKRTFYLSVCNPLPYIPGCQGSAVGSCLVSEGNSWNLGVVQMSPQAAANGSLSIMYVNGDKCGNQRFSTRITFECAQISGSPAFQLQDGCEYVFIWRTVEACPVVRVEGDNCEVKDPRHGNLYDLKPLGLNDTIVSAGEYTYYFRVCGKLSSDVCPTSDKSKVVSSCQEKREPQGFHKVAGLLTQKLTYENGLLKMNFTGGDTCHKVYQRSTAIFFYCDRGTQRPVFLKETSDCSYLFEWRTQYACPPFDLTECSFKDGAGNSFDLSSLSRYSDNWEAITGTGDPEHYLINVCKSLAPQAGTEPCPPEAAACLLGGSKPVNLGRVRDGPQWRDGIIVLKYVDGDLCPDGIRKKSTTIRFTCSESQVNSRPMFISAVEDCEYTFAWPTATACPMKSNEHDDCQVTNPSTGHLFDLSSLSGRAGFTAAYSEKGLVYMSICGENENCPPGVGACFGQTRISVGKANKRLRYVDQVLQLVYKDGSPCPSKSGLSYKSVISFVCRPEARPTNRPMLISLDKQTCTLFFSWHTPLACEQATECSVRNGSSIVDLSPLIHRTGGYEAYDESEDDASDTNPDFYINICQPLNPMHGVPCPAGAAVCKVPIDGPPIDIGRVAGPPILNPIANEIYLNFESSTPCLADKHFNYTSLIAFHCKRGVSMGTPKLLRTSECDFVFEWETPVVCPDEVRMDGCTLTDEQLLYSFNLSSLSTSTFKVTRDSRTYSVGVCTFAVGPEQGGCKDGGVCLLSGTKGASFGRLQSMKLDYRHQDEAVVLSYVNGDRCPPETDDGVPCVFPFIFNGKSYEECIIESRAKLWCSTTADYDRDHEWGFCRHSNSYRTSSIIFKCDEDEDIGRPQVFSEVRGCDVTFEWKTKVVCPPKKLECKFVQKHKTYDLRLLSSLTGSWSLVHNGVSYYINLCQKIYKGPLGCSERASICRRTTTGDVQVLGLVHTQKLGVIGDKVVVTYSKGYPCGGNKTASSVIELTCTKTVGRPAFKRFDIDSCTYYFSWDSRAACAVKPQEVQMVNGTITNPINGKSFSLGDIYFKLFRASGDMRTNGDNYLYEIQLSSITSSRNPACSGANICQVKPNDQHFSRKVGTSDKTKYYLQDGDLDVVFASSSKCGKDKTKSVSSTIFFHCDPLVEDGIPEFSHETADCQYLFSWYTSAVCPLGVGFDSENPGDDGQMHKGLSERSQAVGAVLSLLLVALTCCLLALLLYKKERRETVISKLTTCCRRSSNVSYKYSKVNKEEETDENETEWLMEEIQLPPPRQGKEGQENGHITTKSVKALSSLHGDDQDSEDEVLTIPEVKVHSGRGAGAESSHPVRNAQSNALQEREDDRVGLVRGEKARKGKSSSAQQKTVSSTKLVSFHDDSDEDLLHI
UniProt O14786, residues 22-923: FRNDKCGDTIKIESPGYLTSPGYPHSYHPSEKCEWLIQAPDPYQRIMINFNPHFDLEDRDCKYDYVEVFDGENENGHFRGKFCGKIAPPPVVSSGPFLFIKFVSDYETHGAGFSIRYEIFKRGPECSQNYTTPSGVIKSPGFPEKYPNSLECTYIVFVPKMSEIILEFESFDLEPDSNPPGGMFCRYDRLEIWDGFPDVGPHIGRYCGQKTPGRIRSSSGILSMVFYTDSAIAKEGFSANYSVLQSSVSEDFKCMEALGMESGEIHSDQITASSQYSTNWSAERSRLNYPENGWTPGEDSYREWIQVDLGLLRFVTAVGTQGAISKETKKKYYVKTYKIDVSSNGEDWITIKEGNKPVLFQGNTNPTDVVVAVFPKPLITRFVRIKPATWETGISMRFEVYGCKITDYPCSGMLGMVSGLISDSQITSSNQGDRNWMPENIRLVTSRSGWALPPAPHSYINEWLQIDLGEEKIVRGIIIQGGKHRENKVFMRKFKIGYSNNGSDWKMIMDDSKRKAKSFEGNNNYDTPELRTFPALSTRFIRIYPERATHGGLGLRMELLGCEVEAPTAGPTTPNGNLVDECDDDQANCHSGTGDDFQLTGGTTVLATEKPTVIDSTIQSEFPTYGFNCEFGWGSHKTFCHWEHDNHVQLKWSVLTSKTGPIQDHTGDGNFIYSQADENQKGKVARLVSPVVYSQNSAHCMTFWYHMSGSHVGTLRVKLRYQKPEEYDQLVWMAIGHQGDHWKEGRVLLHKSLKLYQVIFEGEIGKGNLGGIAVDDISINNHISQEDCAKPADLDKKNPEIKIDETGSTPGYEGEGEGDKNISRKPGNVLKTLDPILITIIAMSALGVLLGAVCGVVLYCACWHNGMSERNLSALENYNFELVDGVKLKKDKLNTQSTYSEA

Residue numbers refer to the chain shown, from its start. These are yes or no findings as the source states them, for the method shown. In cells and extracts the contact can be indirect. Some entries that bind do so weakly or less than the wild type. For part of these data: Tags and fused reporters may be left off the sequences shown.

One assay has as its target T1, GFP-tagged SNX32 (UniProt Q86XE0).
T1 sequence: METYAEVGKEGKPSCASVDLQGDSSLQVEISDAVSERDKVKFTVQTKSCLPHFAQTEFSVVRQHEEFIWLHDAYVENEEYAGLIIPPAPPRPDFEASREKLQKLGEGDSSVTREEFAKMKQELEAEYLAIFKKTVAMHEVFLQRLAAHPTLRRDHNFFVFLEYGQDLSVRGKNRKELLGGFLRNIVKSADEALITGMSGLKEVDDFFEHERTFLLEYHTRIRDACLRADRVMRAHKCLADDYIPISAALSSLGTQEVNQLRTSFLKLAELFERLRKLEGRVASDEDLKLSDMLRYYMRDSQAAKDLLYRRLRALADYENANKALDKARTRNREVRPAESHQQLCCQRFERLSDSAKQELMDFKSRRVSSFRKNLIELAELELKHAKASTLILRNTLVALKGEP
Briefly: co-IP; GFP-nanotrap (GFP trap, ChromoTek) of lysates of HEK293T cells 48 h after transfection; 50 mM Tris-HCl, 0.5% Nonidet P-40, protease inhibitors; quantitative Western blot.

The target in assay [1] is T2, GFP-tagged SNX5 (UniProt Q9Y5X3).
T2 sequence: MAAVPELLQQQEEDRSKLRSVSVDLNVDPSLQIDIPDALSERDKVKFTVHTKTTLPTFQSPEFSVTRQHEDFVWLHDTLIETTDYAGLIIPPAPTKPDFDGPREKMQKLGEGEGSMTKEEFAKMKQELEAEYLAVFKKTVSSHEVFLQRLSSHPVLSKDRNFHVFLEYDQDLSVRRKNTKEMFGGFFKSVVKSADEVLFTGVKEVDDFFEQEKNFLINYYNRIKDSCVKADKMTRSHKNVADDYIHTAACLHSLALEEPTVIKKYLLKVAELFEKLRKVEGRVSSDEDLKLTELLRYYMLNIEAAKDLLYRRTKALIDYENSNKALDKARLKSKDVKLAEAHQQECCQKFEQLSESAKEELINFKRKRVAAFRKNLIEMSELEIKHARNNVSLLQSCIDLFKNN
The description is as above.

The target of a further assay is T3, GFP-tagged SNX2 (UniProt O60749).
T3 sequence: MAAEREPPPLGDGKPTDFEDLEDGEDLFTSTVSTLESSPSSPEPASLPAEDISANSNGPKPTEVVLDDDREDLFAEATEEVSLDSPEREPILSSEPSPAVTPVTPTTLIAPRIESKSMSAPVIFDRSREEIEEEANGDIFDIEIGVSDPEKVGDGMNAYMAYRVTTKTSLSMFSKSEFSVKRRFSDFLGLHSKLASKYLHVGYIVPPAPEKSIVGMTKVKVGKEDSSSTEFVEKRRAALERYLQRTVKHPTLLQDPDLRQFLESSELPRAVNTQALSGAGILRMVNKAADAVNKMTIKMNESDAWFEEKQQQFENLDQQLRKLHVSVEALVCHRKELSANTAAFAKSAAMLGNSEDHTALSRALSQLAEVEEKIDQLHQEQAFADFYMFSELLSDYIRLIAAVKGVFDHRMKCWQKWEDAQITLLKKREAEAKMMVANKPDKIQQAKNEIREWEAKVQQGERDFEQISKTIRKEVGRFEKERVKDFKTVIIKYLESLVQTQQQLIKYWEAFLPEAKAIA
The assay is described as above.

The target of assay [2] is T4, GFP-tagged SNX6 (UniProt Q9UNH7).
T4 sequence: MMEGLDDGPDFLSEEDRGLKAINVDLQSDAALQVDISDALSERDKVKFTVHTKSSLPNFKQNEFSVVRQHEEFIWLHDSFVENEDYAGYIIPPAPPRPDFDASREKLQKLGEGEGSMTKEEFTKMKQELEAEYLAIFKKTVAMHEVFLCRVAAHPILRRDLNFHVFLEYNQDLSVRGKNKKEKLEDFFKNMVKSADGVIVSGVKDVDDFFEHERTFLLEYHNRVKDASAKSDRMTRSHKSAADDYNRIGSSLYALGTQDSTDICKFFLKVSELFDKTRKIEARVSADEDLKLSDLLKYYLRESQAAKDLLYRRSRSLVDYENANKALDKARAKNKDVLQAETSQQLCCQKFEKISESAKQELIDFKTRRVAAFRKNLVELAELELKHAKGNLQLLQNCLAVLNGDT
The assay is described as above.

Assay [3] has as its target T5, GFP-tagged SNX5 F136D mutant (UniProt Q9Y5X3).
T5 sequence: T2 sequence with F136D
Described as above.

A further assay deals with GFP-tagged SNX1 (UniProt Q13596). The description is as above.
The target of assay [4] is T2, GFP-tagged SNX5. As to the kind of experiment: co-IP.
Assay [5] deals with T4, GFP-tagged SNX6. Briefly: co-IP.

For the substance “cation-independent mannose 6-phosphate receptor (CI-MPR), endogenous (from UniProt P11717 41-2491)”, the binding result in the assay with GFP-tagged SNX32 is “binds”; with GFP-tagged SNX5 [1], “binds”; with GFP-tagged SNX2, “no binding”; with GFP-tagged SNX6 [2], “binds”.
Consider “endogenous Neuropilin-1 (NRP1) (from UniProt O14786 22-923) (receptor)”, for which the binding entry in the assay with GFP-tagged SNX32 was “binds”; in assay [3], “no binding”; with GFP-tagged SNX5 [1], “binds”; with GFP-tagged SNX1, “no binding”; in the assay with GFP-tagged SNX2, “no binding”; in the assay with GFP-tagged SNX6 [2], “binds”. Further, the binding entry in the assay with GFP-tagged SNX5 [4] and in the assay with GFP-tagged SNX6 [5] was “binds” each time.
